PubChem BioAssay AID463173 (ICCB-Longwood Screening Facility, Harvard Medical School, 2010)
Hit rate of the full screen: of about 52,000 compounds, about 4,300 (8.3%) were called active. Cut-off read from the data, not from the text of the source: active = survival mostly below about 52% (no sharp cut-off); inactive = mostly above about 56%. The list shows a part of the results.

tested on: DeltatarO mutant; test: growth inhibition of S. aureus wild type versus tarO mutant, primary screen, teichoic acid synthesis inhibitors, RN4220, OD600 (AID 463173); conditions: OD600, 18 h, stronger effect = lower value, screened at 18.75 µg/mL (by protocol)

Which survival does the source give for `Cc1ccc(C)c(Nc2ncnc3onc(C)c23)c1` here?
The survival was inactive: 81%.

`COc1ccc(NC(=O)CCSc2nc(-c3ccco3)cc(C(F)(F)F)n2)cc1` was tested. Which survival did it give?
The survival was inactive: 57%.

Which survival does the source give for `COc1ccc(NC(=O)CSc2ncccc2C(=O)O)cc1OC` here?
The survival was inactive: 93%.

How did the survival turn out when `Cc1nc(SCC(=O)Nc2c(C)nn(C)c2C)c2cnn(-c3ccccc3)c2n1` was run?
The survival was inactive: 68%.

For `Cc1ccc(Cl)cc1NC(=O)CSc1ccc(C(=O)O)cn1`, which survival is on record?
Its survival is inactive: 63%.

`c1ccc(-c2nnc(CN3CCN(c4ccccn4)CC3)o2)cc1` was tested. Which survival did it give?
Its survival is inactive: 79%.

Which survival does the source give for `CCC1CN(C(=O)N2CCC(C(=O)NCCc3ccccc3C)CC2)c2ccccc2O1` (centres undefined) here?
The survival was inactive: 103%.

For `Cc1ccc(OCC(=O)OCc2cc(=O)n3nc(C4CCCCC4)sc3n2)cc1C`, which survival is on record?
Its survival is inactive: 88%.

With `O=C(c1[nH]c2ccccc2c1Sc1ccc(Cl)cc1)N1CCCCC1` as the compound, how does the survival read?
The survival was active: 11%.

How did the survival turn out when `O=C1CC(c2ccccc2)Sc2nc(-c3ccc(F)cc3)nn21` (centres undefined) was run?
Its survival is inactive: 81%.

`COc1ccc(C(=O)Nc2cc(C(C)C)c(O)c(S(=O)(=O)c3ccc(Cl)cc3)c2C)cc1` was tested. Which survival did it give?
Its survival is inactive: 73%.

`CCN(Cc1ccccc1)Cc1c(O)ccc2c(=O)c(-c3ccccc3)c(C(F)(F)F)oc12` was tested. Which survival did it give?
Its survival is inactive: 155%.

How did the survival turn out when `CCOc1ccccc1CNCc1c(C(=O)O)c(C)n(Cc2ccc(Cl)cc2)c1C` was run?
The survival was inactive: 75%.

`CCC1CCCCN1CCCNC(=O)c1ccc2c(c1)N(Cc1ccccc1)C(=O)c1ccccc1S2(=O)=O` (centres undefined) was tested. Which survival did it give?
Its survival is inactive: 156%.

Which survival does the source give for `CCn1nc(C)c2c(-c3ccccc3)cc(=O)n(C(C)C(=O)NCc3cccc(OC)c3)c21` (centres undefined) here?
Its survival is inactive: 83%.

How did the survival turn out when `CCOc1cccc(CC(=O)N2CCc3c([nH]c4ccccc34)C2c2ccccc2)c1OCC` (centres undefined) was run?
Its survival is inactive: 76%.

How did the survival turn out when `CCN(CC)c1ccc(CN(C(=O)Cc2coc3ccc(C)cc23)C2CCS(=O)(=O)C2)cc1` (centres undefined) was run?
Its survival is inactive: 82%.

For `CCc1ccc(OCCCn2c(-c3ccc(Cl)cc3)nc3ccccc3c2=O)cc1`, which survival is on record?
The survival was active: 44%.

With `CCCN1C(=O)CSC1=Nc1ccccc1` as the compound, how does the survival read?
Its survival is inactive: 103%.

Which survival does the source give for `Cc1ccc(-c2nc3scc(CCNS(=O)(=O)c4ccc(F)c(C)c4)n3n2)cc1` here?
Its survival is inactive: 75%.

With `Cc1ccc(C(=O)Nc2cc3c(cc2N2CCCC2)n(C)c(=O)c(=O)n3C)cc1` as the compound, how does the survival read?
Its survival is inactive: 94%.

With `COc1cc(NC(=O)COCc2cc(-c3ccc(F)cc3)on2)cc(OC)c1OC` as the compound, how does the survival read?
The survival was inactive: 75%.

With `CCCCn1nc(CC(=O)O)c2ccccc2c1=O` as the compound, how does the survival read?
The survival was inactive: 83%.

For `Cc1nn(C(C)(C)C)c(OC(=O)C(C)(C)C)c1Sc1ccccc1`, which survival is on record?
Its survival is active: -10%.

For `Cc1ccc(C(c2nnnn2C2CCCC2)N(Cc2cccnc2)CC2CCCO2)cc1` (centres undefined), which survival is on record?
The survival was inactive: 74%.

How did the survival turn out when `COc1cccc(-n2c(SCC(=O)c3ccc(Cl)cc3)nc3c([nH]c4ccccc43)c2=O)c1` was run?
The survival was inactive: 63%.

For `CSc1ccc(CNC(=O)c2ccc(NC(=O)c3nsc4ccccc34)cc2)cc1`, which survival is on record?
The survival was inactive: 91%.

`COC(=O)Cn1c(=O)c2c(nc3n2CCN3c2ccc(F)cc2)n(C)c1=O` was tested. Which survival did it give?
Its survival is inactive: 76%.

`CSc1nnc(C2CCCN2Cc2cccnc2)n1C` (centres undefined) was tested. Which survival did it give?
Its survival is inactive: 80%.

`Cc1ccccc1NC(=O)Cn1c(=O)n(CC2CCC(C(=O)NCCc3ccccc3)CC2)c(=O)c2ccccc21` (centres undefined) was tested. Which survival did it give?
Its survival is inactive: 73%.

With `NC(=S)N/N=C/c1ccccc1OCC(=O)O` as the compound, how does the survival read?
The survival was inactive: 80%.

How did the survival turn out when `Cc1ccc(N2C(=O)[C@@H]3CSC(c4ccc(F)cc4)N3C2=O)cc1` (some centres undefined) was run?
The survival was inactive: 68%.

For `COc1ccc(Cl)cc1NC(=O)Cn1c(=O)n(CCC(=O)NCc2ccc3c(c2)OCO3)c(=O)c2ccccc21`, which survival is on record?
The survival was inactive: 95%.

With `CCOc1ccccc1C(=O)Nc1nc2c(s1)CC(C)CC2` (centres undefined) as the compound, how does the survival read?
The survival was inactive: 82%.

`Cc1ccc(CNS(=O)(=O)c2ccc(-c3cc(C(F)(F)F)on3)s2)cc1` was tested. Which survival did it give?
The survival was inactive: 72%.

For `Nc1c(C(=O)Nc2ccccc2)nnn1Cc1ccc(F)cc1Cl`, which survival is on record?
The survival was inactive: 99%.

For `O=C(Nc1ccc(OCc2cc(=O)n3c4c(sc3n2)CCCC4)cc1)c1ccccc1`, which survival is on record?
Its survival is inactive: 82%.

`CC1CCc2nc3ncn(Cc4ccccc4F)c(=O)c3cc2C1` (centres undefined) was tested. Which survival did it give?
The survival was inactive: 66%.

How did the survival turn out when `COc1ccc(N2CC(NC(=O)c3ccc4c(c3)OCO4)CC2=O)cc1` (centres undefined) was run?
Its survival is inactive: 131%.

`CCOc1ccc(NC(=O)CN(c2ccc(Cl)cc2C)S(=O)(=O)c2ccccc2)cc1` was tested. Which survival did it give?
The survival was active: 45%.

Which survival does the source give for `COc1ccc(NC(=O)CN(c2ccc(C)cc2)S(=O)(=O)c2cccc3nonc23)cc1OC` here?
The survival was inactive: 64%.

With `CCOc1ccc(OCC)c(NS(=O)(=O)c2c(C(=O)N3CCC(C)CC3)c(C)n(C)c2C)c1` as the compound, how does the survival read?
Its survival is active: 8%.

With `Clc1ccc(CSc2ncn[nH]2)cc1` as the compound, how does the survival read?
The survival was inactive: 84%.

`Cn1cc(C(=O)N2CCN(c3cccc(C(F)(F)F)c3)CC2)c2c3ccccc3n(C)c2c1=O` was tested. Which survival did it give?
The survival was active: 20%.

How did the survival turn out when `O=C(O)CCn1cnc2onc(-c3cc(F)cc(F)c3)c2c1=O` was run?
The survival was inactive: 104%.

For `CC(=O)Nc1ccc(NC(=O)Cn2nc(C(=O)Nc3ccc(C)cc3)ccc2=O)cc1`, which survival is on record?
Its survival is inactive: 104%.

With `CCOc1ccc(-c2cc3c(=O)n(CC(=O)NCc4ccc(Cl)cc4)ccn3n2)cc1` as the compound, how does the survival read?
Its survival is inactive: 94%.

With `COc1ccccc1N1CCN(c2nc(-c3ccc(C)cc3)nc3ccccc23)CC1` as the compound, how does the survival read?
The survival was inactive: 83%.

`CCOC(=O)c1c(-c2ccccc2)csc1NC(=O)c1cc(-c2ccc(F)cc2)on1` was tested. Which survival did it give?
The survival was inactive: 66%.

With `CN(c1ccccc1)S(=O)(=O)c1nnc(NC(=O)c2ccccc2)s1` as the compound, how does the survival read?
The survival was active: 32%.

With `CC(C)n1cnc(S(=O)(=O)N2CCCC(C(=O)NCc3ccccc3Cl)C2)c1` (centres undefined) as the compound, how does the survival read?
The survival was inactive: 92%.

With `N#Cc1cc2sc3nc4ccccc4n3c2cc1C#N` as the compound, how does the survival read?
Its survival is inactive: 90%.

For `CCCOc1c(Cl)cc(C(=O)N(Cc2cccc(OC)c2)C2CCS(=O)(=O)C2)cc1Cl` (centres undefined), which survival is on record?
Its survival is inactive: 81%.

How did the survival turn out when `CC(C)NC(=O)C1CCC(Cn2c(=O)c3sccc3n(CC(=O)NCc3ccccc3)c2=O)CC1` (centres undefined) was run?
The survival was inactive: 78%.

With `COc1ccc(NC(=O)Cn2cnc3c(oc4ccccc43)c2=O)cc1OC` as the compound, how does the survival read?
Its survival is inactive: 79%.

`CCOc1ccc(NC(=O)c2cnc(N3CCCCC3)c3ccccc23)cc1` was tested. Which survival did it give?
The survival was inactive: 94%.

With `Cc1cccc(C(=O)Nc2ccccc2C#N)c1` as the compound, how does the survival read?
Its survival is inactive: 95%.

How did the survival turn out when `COc1cccc(CNC(=O)CSc2c3c(nc4cc(Cl)ccc24)CCCC3)c1` was run?
The survival was inactive: 48%.

`O=C(CS(=O)CC(=O)Nc1cccc2c1CCCC2)Nc1ccc(F)cc1` (centres undefined) was tested. Which survival did it give?
Its survival is inactive: 75%.

With `COc1ccc(Cn2c(=O)c3oc4ccccc4c3n(Cc3cccc(C)c3)c2=O)cc1` as the compound, how does the survival read?
Its survival is inactive: 64%.

How did the survival turn out when `CCOc1ccccc1NC(=O)Cn1cc(C(=O)c2ccc(Cl)cc2)c(=O)c2ccc(C)nc21` was run?
Its survival is inactive: 87%.

For `Cc1cccc2c(=O)cc(CSc3ccccc3NC(=O)c3cccc(F)c3)[nH]c12`, which survival is on record?
Its survival is inactive: 92%.

How did the survival turn out when `COC(=O)Cn1c(=O)c2cccn2c2cccnc21` was run?
The survival was inactive: 120%.

With `CCOc1ccc(C(=O)c2c(N)c(-c3nc(-c4ccc5c(c4)OCO5)cs3)c3ccccn23)cc1` as the compound, how does the survival read?
Its survival is inactive: 108%.

With `Cc1ccsc1CN(C(=O)c1oc2cc(Br)ccc2c1C)C1CCS(=O)(=O)C1` (centres undefined) as the compound, how does the survival read?
The survival was inactive: 64%.

`O=C(CCn1ccc2cc(S(=O)(=O)N3CCCC3)ccc21)NCc1cccc(Br)c1` was tested. Which survival did it give?
Its survival is inactive: 126%.

`Cc1ccc(C)c(Nc2nn3c(=O)c4ccc(C(=O)NC5CCCCC5)cc4nc3s2)c1` was tested. Which survival did it give?
Its survival is inactive: 77%.

How did the survival turn out when `COc1ccc(CCNC(=O)CCCCn2c(=O)c3ccccc3n(Cc3ccc(F)cc3Cl)c2=O)cc1OC` was run?
Its survival is inactive: 82%.

Which survival does the source give for `Cc1ccc(-c2nc3ncccc3o2)cc1NC(=O)c1cccc(OCC(C)C)c1` here?
The survival was active: 42%.

For `Cn1c(=O)c2c(nc(NCc3ccccc3)n2Cc2ccccc2Cl)n(C)c1=O`, which survival is on record?
The survival was inactive: 58%.

With `O=C(C1CC1)N1CCN(c2nc3ccc(F)cc3s2)CC1` as the compound, how does the survival read?
Its survival is inactive: 117%.

With `CN(C)S(=O)(=O)c1ccc2c(c1)nnn2CCNC(=O)Nc1ccc(Br)cc1` as the compound, how does the survival read?
The survival was inactive: 83%.

For `CCCCOc1ccc(CNC(=O)c2cnc3sc(N4CCOCC4)nn3c2=O)cc1`, which survival is on record?
The survival was inactive: 69%.

`COc1cccc(OCc2nc3ccccc3n2CCOc2ccccc2C)c1` was tested. Which survival did it give?
The survival was active: 38%.

For `O=C(NCCSc1c(-c2ccc(F)cc2)[nH]c2ccccc12)c1ccc(S(=O)(=O)N2CCOCC2)cc1`, which survival is on record?
The survival was inactive: 86%.

How did the survival turn out when `COc1cccc(NC(=O)C2CCN(C(=O)N3CC(C)Oc4ccccc43)CC2)c1` (centres undefined) was run?
The survival was inactive: 101%.

`COc1cccc(Cn2c(=O)n(-c3ccccc3C)c(=O)c3c2c2cc(C)ccc2n3C)c1` was tested. Which survival did it give?
The survival was inactive: 80%.

How did the survival turn out when `COc1ccc(Cl)cc1C(=O)Nc1ccc(-c2nnc3n2CCCCC3)cc1` was run?
The survival was inactive: 72%.

Which survival does the source give for `O=C(NCc1ccccc1Cl)c1ccc2c(O)c(S(=O)(=O)c3ccccc3)c(=O)[nH]c2c1` here?
The survival was inactive: 78%.

`Cc1ccc(CNC(=O)CN2C(=O)C3CCCCN3c3ccc(C(=O)N4CCCC4)cc32)cc1` (centres undefined) was tested. Which survival did it give?
Its survival is inactive: 76%.

For `COc1cccc(-n2c(SCc3ccccc3C)nc3c([nH]c4ccccc43)c2=O)c1`, which survival is on record?
The survival was inactive: 102%.

Which survival does the source give for `CC(=O)c1ccc(NC(=O)CCc2c(C)nc3cc(-c4ccc(Cl)cc4)nn3c2C)cc1` here?
The survival was inactive: 47%.

How did the survival turn out when `Cc1cccc(Cc2c(C)nc3nc(SCc4ccccc4C)nn3c2C)c1` was run?
The survival was inactive: 95%.

`Cc1ccc(C)c(NC(=O)CN(CCc2ccccc2)S(=O)(=O)c2ccccc2)c1` was tested. Which survival did it give?
The survival was active: 46%.

How did the survival turn out when `CCC1CN(C(=O)Nc2cc(C)cc(C)c2)c2ccccc2O1` (centres undefined) was run?
Its survival is inactive: 59%.

`O=C(O)c1ccc(CSc2nnc(-c3ccncc3)n2CC2CCCO2)cc1` (centres undefined) was tested. Which survival did it give?
Its survival is inactive: 76%.

`CCc1ccc(NC(=O)Cn2c(=O)n(CCC(=O)NCc3ccc4c(c3)OCO4)c(=O)c3ccccc32)cc1` was tested. Which survival did it give?
Its survival is inactive: 91%.

With `Cc1c(C)n(Cc2ccccc2)c2ccc(C(=O)NCc3ccco3)cc12` as the compound, how does the survival read?
Its survival is inactive: 101%.

Which survival does the source give for `Cc1c(-c2nsc(NC(=O)c3cccs3)n2)nnn1-c1ccc(Br)cc1` here?
Its survival is inactive: 77%.
